The results in this text go back to paper PMC9911399, “Two distinct binding modes provide the RNA-binding protein RbFox with extraordinary sequence specificity”.

Changes are numbered by the printed parent chain; changes in the protein carry UniProt numbers. The list shows a part of the results.

T1: RBFOX1 RRM (Homo sapiens, UniProt Q9NWB1 109-208)
T1 sequence: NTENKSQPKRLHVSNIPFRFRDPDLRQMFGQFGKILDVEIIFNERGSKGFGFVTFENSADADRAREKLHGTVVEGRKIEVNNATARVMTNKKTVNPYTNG

B1: GUUGGGC (DNA:RNA)
RNA: GGGAGACCGGAAUUCAGAUUGUCCGUUGGGCUUAAAUCCCGUCGUAGCCACCA
DNA 1: CAATCTGAATTCCGGTCTCCC
DNA 2: TGGTGGCTACGACGGGATT
B2: CGAUUAC (DNA:RNA)
RNA: B1 RNA with G25C, U26G, U27A, G28U, G29U, G30A
DNA 1: CAATCTGAATTCCGGTCTCCC
DNA 2: TGGTGGCTACGACGGGATT
B3: CCUUCUU (DNA:RNA)
RNA: B1 RNA with G25C, U26C, G28U, G29C, G30U, C31U
DNA 1: CAATCTGAATTCCGGTCTCCC
DNA 2: TGGTGGCTACGACGGGATT
B4: AAUGGAC (DNA:RNA)
RNA: B1 RNA with G25A, U26A, G30A
DNA 1: CAATCTGAATTCCGGTCTCCC
DNA 2: TGGTGGCTACGACGGGATT
B5: CCUGCCA (DNA:RNA)
RNA: B1 RNA with G25C, U26C, G29C, G30C, C31A
DNA 1: CAATCTGAATTCCGGTCTCCC
DNA 2: TGGTGGCTACGACGGGATT
B6: GCCCUGC (DNA:RNA)
RNA: B1 RNA with U26C, U27C, G28C, G29U
DNA 1: CAATCTGAATTCCGGTCTCCC
DNA 2: TGGTGGCTACGACGGGATT
B7: AAGGGUC (DNA:RNA)
RNA: B1 RNA with G25A, U26A, U27G, G30U
DNA 1: CAATCTGAATTCCGGTCTCCC
DNA 2: TGGTGGCTACGACGGGATT
B8: AGGGUGC (DNA:RNA)
RNA: B1 RNA with G25A, U26G, U27G, G29U
DNA 1: CAATCTGAATTCCGGTCTCCC
DNA 2: TGGTGGCTACGACGGGATT
B9: ACUAUUA (DNA:RNA)
RNA: B1 RNA with G25A, U26C, G28A, G29U, G30U, C31A
DNA 1: CAATCTGAATTCCGGTCTCCC
DNA 2: TGGTGGCTACGACGGGATT
B10: CUGCCAU (DNA:RNA)
RNA: B1 RNA with G25C, U27G, G28C, G29C, G30A, C31U
DNA 1: CAATCTGAATTCCGGTCTCCC
DNA 2: TGGTGGCTACGACGGGATT
B11: GCGCCUG (DNA:RNA)
RNA: B1 RNA with U26C, U27G, G28C, G29C, G30U, C31G
DNA 1: CAATCTGAATTCCGGTCTCCC
DNA 2: TGGTGGCTACGACGGGATT
B12: CGCAUGA (DNA:RNA)
RNA: B1 RNA with G25C, U26G, U27C, G28A, G29U, C31A
DNA 1: CAATCTGAATTCCGGTCTCCC
DNA 2: TGGTGGCTACGACGGGATT
B13: UAAUCCG (DNA:RNA)
RNA: GGGAGACCGGAAUUCAGAUUGUCCUAAUCCGUUAAAUCCCGUCGUAGCCACCA
DNA 1: CAATCTGAATTCCGGTCTCCC
DNA 2: TGGTGGCTACGACGGGATT
B14: UUACAUC (DNA:RNA)
RNA: B1 RNA with G25U, U27A, G28C, G29A, G30U
DNA 1: CAATCTGAATTCCGGTCTCCC
DNA 2: TGGTGGCTACGACGGGATT
B15: UUCGGAU (DNA:RNA)
RNA: B1 RNA with G25U, U27C, G30A, C31U
DNA 1: CAATCTGAATTCCGGTCTCCC
DNA 2: TGGTGGCTACGACGGGATT
B16: CGACUAA (DNA:RNA)
RNA: B13 RNA with U25C, A26G, U28C, C29U, C30A, G31A
DNA 1: CAATCTGAATTCCGGTCTCCC
DNA 2: TGGTGGCTACGACGGGATT
B17: UCGGUAA (DNA:RNA)
RNA: B1 RNA with G25U, U26C, U27G, G29U, G30A, C31A
DNA 1: CAATCTGAATTCCGGTCTCCC
DNA 2: TGGTGGCTACGACGGGATT
B18: GAUUAUG (DNA:RNA)
RNA: B13 RNA with U25G, A27U, C29A, C30U
DNA 1: CAATCTGAATTCCGGTCTCCC
DNA 2: TGGTGGCTACGACGGGATT
B19: AUGCUGC (DNA:RNA)
RNA: B1 RNA with G25A, U27G, G28C, G29U
DNA 1: CAATCTGAATTCCGGTCTCCC
DNA 2: TGGTGGCTACGACGGGATT
B20: CUGCCUG (DNA:RNA)
RNA: B13 RNA with U25C, A26U, A27G, U28C, C30U
DNA 1: CAATCTGAATTCCGGTCTCCC
DNA 2: TGGTGGCTACGACGGGATT

For this test, the target named is T1, RBFOX1 RRM. Nature of the test: EMSA; HiTS-Eq, 1 nM pool, 10 min; buffer printed only for the single-RNA assays: 10 mM Tris pH 7.5, 150 mM NaCl, 3.4 mM EDTA, 0.001% NP-40, 30 C. The conditions noted are these: tags: His6 N-terminal (pET28a); label: 5' 32P. The essentials:
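Purified RbFox RRM (wild type or mutant) was equilibrated for 10 min in 50 µL with 1 nM of a 5′-radiolabelled pool of RNA with 7 randomized nucleotides, its flanks annealed to DNA oligonucleotides, across increasing protein concentrations. Free RNA was separated by 8% native PAGE, excised, reverse-transcribed, PCR-barcoded and sequenced on an Illumina HiSeq 2500. Relative association constants came from read-count changes of each variant against the control reaction, normalised to the cognate motif.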
(A gel shift assay detects complexes by their altered migration in electrophoresis.)
In the case of B1, the binding signal is 0.0131 KA relative to UGCAUGU.

Turning to B2, the binding signal is 0.00527 KA relative to UGCAUGU.

For the molecule B3, the binding signal is 0.00641 KA relative to UGCAUGU.

On to B4, for which the binding signal is 0.0103 KA relative to UGCAUGU.

As to B5, the binding signal is 0.00896 KA relative to UGCAUGU.

As for B6, the binding signal is 0.0133 KA relative to UGCAUGU.

As for B7, the binding signal was 0.0111 KA relative to UGCAUGU.

Turning to B8, the binding signal was 0.0198 KA relative to UGCAUGU.

Turning to B9, the binding signal was 0.00048 KA relative to UGCAUGU.

For B10, the binding signal is 0.0074 KA relative to UGCAUGU.

As to B11, the binding signal is 0.0316 KA relative to UGCAUGU.

Consider B12, for which the binding signal is 0.67 KA relative to UGCAUGU.

In the case of B13, the binding signal was 0.00439 KA relative to UGCAUGU.

Turning to B14, the binding signal is 0.00129 KA relative to UGCAUGU.

For the molecule B15, the binding signal was 0.00504 KA relative to UGCAUGU.

As to B16, the binding signal is 0.00165 KA relative to UGCAUGU.

Consider B17, for which the binding signal was 0.0131 KA relative to UGCAUGU.

For the molecule B18, the binding signal is 0.0129 KA relative to UGCAUGU.

Regarding B19, the binding signal was 0.00746 KA relative to UGCAUGU.

For the molecule B20, the binding signal was 0.0391 KA relative to UGCAUGU.
